Laboratory results from PubChem BioAssay AID1240 (Sanford-Burnham Center for Chemical Genomics, 2008).
Hit rate of the full screen: of about 50,000 compounds, about 800 (1.6%) showed an effect of 50% or more. This is one part of the list.

The compounds below were run against Bcl-2-like protein 10 (Homo sapiens) (UniProt Q9HD36) (assay: Phenotype converters, Bcl-B/TR3 peptide binding displacement, primary biochemical FP (AID 1240;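 further: 0% = Bcl-B with tracer peptide and DMSO and 100% = tracer peptide lacking Bcl-B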)). Details: GST-Bcl-B / FITC-TR3 peptide fluorescence polarization; stronger effect = higher value; compound at 3.75 mg/L.
Sequence of UniProt Q9HD36 (Q9HD36 whole entry, looked up): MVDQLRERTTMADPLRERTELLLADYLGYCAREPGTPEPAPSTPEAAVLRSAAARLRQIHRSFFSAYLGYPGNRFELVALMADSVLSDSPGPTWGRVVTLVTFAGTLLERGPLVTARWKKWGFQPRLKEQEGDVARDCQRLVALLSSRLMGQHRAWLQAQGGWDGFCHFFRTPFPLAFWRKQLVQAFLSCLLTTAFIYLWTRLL
`O=c1[nH]c(=S)n(-c2ccc(Br)cc2)c(O)c1/C=C1\C=Nc2ccccc21` gave a displacement of 40.7%.
With `O=C(NCCSCc1ccccc1Cl)C(c1ccccc1)c1ccccc1` the displacement was 0.9%.
With `O=C(c1coc2ccc(O)c(CN3CCOCC3)c12)C1CC1` the displacement was -11.1%.
With `Cc1c(Cl)cccc1-n1ncnc1-c1cccc(Br)c1` the displacement was -1.9%.
With `COC(=O)C1=C(C(=O)OC)C2(OC1c1cccc(F)c1)C(=O)c1ccccc1C2=O` (stereo not given) the displacement was -0.3%.
`O=C1C(Cl)=C(Nc2ccccc2)C(=O)N1c1ccc(Br)cc1` was tested, and the displacement was 6.4%.
`COc1ccc(CC(=O)Nc2ccc(Br)c(C)c2)cc1OC` was tested, and the displacement was 11%.
Work on `CCOc1ccccc1NC(=O)CSc1nnc(C)s1` yielded a displacement of 7.3%.
Work on `COc1ccc(/C=C2\SC(=S)N(C(C(=O)O)C(C)C)C2=O)c(OC)c1` (stereo not given) yielded a displacement of 1.7%.
`Brc1ccc(/C=N/N2CCN(c3ccccn3)CC2)cc1` was tested, and the displacement was -8.8%.
`COc1ccc(NC(=O)COc2cccc(Cl)c2)c(OC)c1` showed a displacement of -4%.
`CCOc1ccc(Nc2nc(-c3c(C)nc4cc(C)ccn34)cs2)cc1` gave a displacement of -17.2%.
With `Cc1ccc(C)c(NC(=O)c2ccc(-c3cccc(Cl)c3C)o2)c1` the displacement was 0.5%.
`Oc1cccc(/C=N/Nc2cc(N3CCOCC3)nc(N3CCOCC3)n2)c1` showed a displacement of 2%.
Work on `COc1ccc(C(=O)CSc2nnc(COc3ccc(Cl)cc3Cl)o2)cc1` yielded a displacement of 2.5%.
Work on `O=C(CC(=O)NC1CCCCC1)N/N=C/c1ccccc1OCc1ccccc1` yielded a displacement of -2.6%.
Work on `O=C1C=CC(=O)N1c1cccc(Br)c1` yielded a displacement of -19.2%.
In the case of `CCn1c2ccccc2c2cc(CNCc3ccc4c(c3)OCO4)ccc21`, the displacement is reported as -3.3%.
`COC(=O)C1=C(C)NC(=O)CC1c1ccc(Cl)cc1Cl` (stereo not given) gave a displacement of 17.5%.
With `O=C(NCC(O)c1ccccc1)C(=O)Nc1ccc(F)cc1` (stereo not given) the displacement was 5%.
`CN(C)c1ccc(/C=C2\SC(=S)N(c3cccc(C(=O)O)c3)C2=O)cc1` gave a displacement of -76.7%.
`CCOc1ccc(N2C(=O)CC(Nc3ccc(N4CCOCC4)cc3)C2=O)cc1` (stereo not given) showed a displacement of 8.5%.
`COc1cc(C(=O)Nc2cccc(NC(=O)c3ccccc3Cl)c2)ccc1[N+](=O)[O-]` showed a displacement of 21.3%.
In the case of `Ic1ccc(OCCCCN2CCCC2)cc1`, the displacement is reported as 12.7%.
Work on `O=C(NCc1ccco1)c1cc(-c2ccccc2)nc2ccccc12` yielded a displacement of -9.5%.
`Cc1cccc(NC(=O)C(=O)NNC(=O)c2ccc(C(C)(C)C)cc2)c1` was tested, and the displacement was -10%.
Work on `COc1cc(CNCc2c[nH]c3ccccc23)cc(OC)c1OC` yielded a displacement of 2%.
For `CCOc1ccc(/C=C2\C(=O)NC(=S)N(c3cccc(Cl)c3)C2=O)cc1Cl`, the displacement was 10.2%.
`Cc1ccc(/C(O)=C2\C(=O)C(=O)N(CCCC(=O)O)C2c2cccc(F)c2)cc1` (stereo not given) showed a displacement of 7.1%.
Work on `O=C1NC(=S)S/C1=C/c1ccccc1Sc1ccc(Cl)cc1` yielded a displacement of 9.1%.
`COc1cc(NC(=O)Cc2ccccc2)ccc1NC(=O)c1ccco1` gave a displacement of 5.4%.
`Cc1c(N=Cc2ccc(-c3cccc(Cl)c3)o2)c(=O)n(-c2ccccc2)n1C` showed a displacement of 2.6%.
`COc1c(Cl)cc(/C=C2/SC(=S)N(Cc3ccccc3)C2=O)cc1Cl` was tested, and the displacement was 4.2%.
Compound `COc1ccccc1NCC(=O)N/N=C\c1c(F)cccc1Cl` has a displacement of 2%.
Compound `COc1cc(C(=O)N/C(=C/c2ccc(F)cc2)C(=O)NC(C)C(=O)O)cc(OC)c1OC` (stereo not given) has a displacement of 2.5%.
Compound `COc1ccccc1/C=C1\C(=O)NC(=S)N(c2ccc(Br)cc2C)C1=O` has a displacement of 4.6%.
For `O=C1NN(c2ccccc2)C(=O)/C1=C/c1cccc(Cl)c1Cl`, the displacement was 15%.
`O=C(NC1CCCCC1)c1cc(Cl)ccc1[N+](=O)[O-]` gave a displacement of -10.4%.
Work on `Cc1ccc(SCCNC(=O)CN(c2ccc(C)cc2)S(C)(=O)=O)cc1` yielded a displacement of -13.4%.
For `O=C(CSc1nnc(-c2ccco2)n1-c1ccccc1)c1cccc([N+](=O)[O-])c1`, the displacement was 22.7%.
In the case of `NC(=O)CCC(NC(=O)C(c1ccccc1)c1ccccc1)C(=O)O` (stereo not given), the displacement is reported as 14%.
`O=C(N/N=C/c1c(Cl)cccc1Cl)c1cc(-c2cccc([N+](=O)[O-])c2)n[nH]1` showed a displacement of -7.9%.
Work on `Cc1cc(C)c(NC(=O)C(C)SCC(=O)Nc2ccc3ccccc3c2)c(C)c1` (stereo not given) yielded a displacement of 10.3%.
With `Cc1no[n+]([O-])c1COc1ccc(/C=C2\SC(=S)NC2=O)cc1` the displacement was -27.5%.
Compound `O=C(N=Nc1c(O)[nH]c2ccc(F)cc12)c1ccccc1O` has a displacement of -9.7%.
`COc1ccc(C(=O)N2CCN(Cc3ccc(C)cc3C)CC2)cc1` showed a displacement of -10.4%.
Work on `O=c1oc2c3c(ccc2c2c1CCC2)OCN(c1ccc(Cl)cc1)C3` yielded a displacement of -5.8%.
Compound `NC(=O)C1CCN(C(=O)c2ccc(Cl)cc2)CC1` has a displacement of 11.1%.
`COc1ccc(/C(O)=C2/C(=O)C(=O)N(CCCCCC(=O)O)C2c2cccc(F)c2)cc1` (stereo not given) was tested, and the displacement was -16.7%.
Compound `Cc1c(/C=C/c2nc3ccccc3c(=O)n2-c2ccccc2)c2ccccc2n1C` has a displacement of 22.5%.
`O=C(Nc1ccc2ccccc2c1)/C(=C\c1ccc(Br)cc1)NC(=O)c1ccco1` showed a displacement of 23.9%.
For `COc1ccccc1C(=O)N1CCN(C2CCN(Cc3ccccc3)CC2)CC1`, the displacement was -10.8%.
Work on `COc1ccc(S(=O)(=O)N(CCc2ccccc2)CC(=O)Nc2ccccc2F)cc1` yielded a displacement of 9.4%.
In the case of `O=C(NCC1(c2ccccc2)CCCC1)c1ccccc1`, the displacement is reported as 5.1%.
With `CCOC(=O)c1c(NC(=O)c2cc(OC)c(OC)c(OC)c2)sc(C(=O)Nc2ccccc2C(F)(F)F)c1C` the displacement was -13.9%.
